# From PubChem BioAssay AID588591 (National Center for Advancing Translational Sciences (NCATS), 2011)
# The campaign covered roughly 390,000 compounds. About 4,700 (1.2%) were called active. Inconclusive results, whose numbers are uncertain, are shown with a selection of clear calls. Calls follow the shape of the dose curve; as a rule, active = well fitted inhibition curve with a large enough effect; inconclusive = small, poorly fitted or top-dose-only effect, or another doubt; inactive = no such curve, though single readings can be large or run the other way. Potencies of inconclusive entries are doubtful fits and often do not repeat.
# Target: DNA polymerase eta (Homo sapiens) (UniProt Q9Y253)
# UniProt Q9Y253, sequence (Q9Y253 whole entry, looked up): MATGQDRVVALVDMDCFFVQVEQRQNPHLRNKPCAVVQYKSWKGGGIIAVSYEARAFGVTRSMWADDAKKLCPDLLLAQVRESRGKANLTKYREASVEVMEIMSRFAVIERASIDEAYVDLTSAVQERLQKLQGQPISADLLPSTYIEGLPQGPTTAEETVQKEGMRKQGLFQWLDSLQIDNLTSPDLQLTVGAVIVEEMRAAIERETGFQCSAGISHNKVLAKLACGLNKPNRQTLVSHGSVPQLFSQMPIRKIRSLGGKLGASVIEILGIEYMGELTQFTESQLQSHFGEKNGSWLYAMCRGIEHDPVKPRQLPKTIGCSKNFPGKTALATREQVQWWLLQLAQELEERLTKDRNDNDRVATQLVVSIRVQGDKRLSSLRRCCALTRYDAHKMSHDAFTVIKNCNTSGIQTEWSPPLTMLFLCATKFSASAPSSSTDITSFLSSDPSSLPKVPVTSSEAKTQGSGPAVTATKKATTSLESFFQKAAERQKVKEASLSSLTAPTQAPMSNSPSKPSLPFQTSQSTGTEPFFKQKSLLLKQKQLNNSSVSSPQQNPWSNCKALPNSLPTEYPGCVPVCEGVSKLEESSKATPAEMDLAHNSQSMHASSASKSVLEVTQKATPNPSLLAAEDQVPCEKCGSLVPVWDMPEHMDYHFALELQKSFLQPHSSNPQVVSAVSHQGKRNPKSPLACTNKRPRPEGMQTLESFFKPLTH
# Test: qHTS for Inhibitors of Polymerase Eta
# Conditions: recombinant Pol eta, fluorescent DNA replication assay; series mostly up to 114 µM
# Procedure, shortened: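 Fluorescent replication assay: 50 nM final substrate added after a 15 min room-temperature compound preincubation with 10 nM enzyme. Signal taken at 0 min and again at 10 min.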
# Potency is read from the fitted curve at half-maximal effect; tags tell the direction and shape of the fitted curve.
row,SMILES,Potency
1,CC(C)(C)c1ccc(C(=O)NC2(C(F)(F)F)C(=O)Nc3c2c(=O)[nH]c(=O)n3-c2ccccc2)cc1 (configuration not stated),inactive
2,COC(=O)c1sc2cc(C(F)(F)F)cnc2c1-c1cccnc1,inactive
3,COc1ccccc1NC(=O)COC(=O)c1cc2c(s1)CCC2,active: 20 µM
4,Cc1cc(C)n(CC(C)NCc2cn[nH]c2-c2ccc(C)c(C)c2)n1 (configuration not stated),"inconclusive: 89.1 µM [inhibitor, partial curve, poor fit]"
5,COc1cc(NC(=O)CSc2nc3c(C)ccc(C)c3cc2C)c(C(=O)O)cc1OC,"inconclusive: 39.8 µM [inhibitor, single point]"
6,Cc1cc(C(=O)N/N=C/c2ccc([N+](=O)[O-])o2)c(C)o1,"inconclusive: 35.5 µM [inhibitor, partial curve, poor fit]"
7,O=C(O)CCCNS(=O)(=O)c1ccc(NCc2ccccc2)c(C(=O)O)c1,"inconclusive: 8.91 µM [inhibitor, partial curve, poor fit]"
8,COC(=O)CCC(=O)OC1(C)C(=O)C2=CN(CCc3ccccn3)C(c3ccc(OC)cc3)=CC2=C(Br)C1=O (configuration not stated),active: 31.6 µM
9,Cc1ccc(/C=C2\SC(=S)N(c3cccnc3)C2=O)o1,inactive
10,Cc1csc(=O)n1CCC(=O)OCC(=O)NNC(=O)c1ccccc1,inactive
11,Cc1ccccc1Cc1c(C)nc2c(C(=O)NCc3ccco3)cnn2c1C,"inconclusive: 100 µM [inhibitor, partial curve, poor fit]"
12,O=C(O)CN1C(=O)/C(=C\c2cc(Br)ccc2OCc2ccc([N+](=O)[O-])cc2)SC1=S,active: 28.2 µM
13,O=C(Cn1c(=O)n(Cc2ccc3c(c2)OCO3)c(=O)c2oc3ccccc3c21)Nc1ccccc1F,inactive
14,O=[n+]1c2c(n([O-])c3ccccc31)CCC2,"inconclusive: 31.6 µM [inhibitor, partial curve, poor fit]"
15,C=CCCCCCCCCC(=O)NNC1=CC(=O)CC(C)(C)C1,"inconclusive: 39.8 µM [inhibitor, partial curve, poor fit]"
16,CC1(C)C(=O)Nc2ccccc2N1C(=O)COC(=O)c1cccs1,active: 25.1 µM
17,Cc1ccc(CNc2ncnc3onc(-c4ccc(F)cc4)c23)cc1,"inconclusive: 89.1 µM [inhibitor, partial curve, poor fit]"
18,CCc1c(C)c2ccc(OC(C)C(=O)NC(Cc3c[nH]c4ccc(O)cc34)C(=O)O)c(C)c2oc1=O (configuration not stated),active: 50.1 µM
19,Cc1ccc(/C=C2\SC(=S)N(CC(=O)Nc3cccnc3)C2=O)cc1,"inconclusive: 79.4 µM [inhibitor, partial curve]"
20,O=[N+]([O-])c1ccc(-c2cc(-c3ccc(Cl)cc3)n[nH]2)cc1,"inconclusive: 8.91 µM [inhibitor, partial curve]"
21,CCn1c2ccc(OC)cc2c2nc3ccccc3nc21,"inconclusive: 15.8 µM [inhibitor, partial curve, poor fit]"
22,O=C(Cn1c(SCCOc2ccc(Cl)cc2)nc2ccccc21)N1CCCCC1,inactive
23,CC1=NNC(=O)C1Cc1ccc(F)cc1 (configuration not stated),inactive

row,SMILES,Potency
1,Cc1ccc(-c2cc(-c3n[nH]c(=S)o3)c3ccccc3n2)cc1,"inconclusive: 28.2 µM [inhibitor, single point]"
2,COc1ccc(C(C)=O)cc1CSc1nc2ccccc2o1,"inconclusive: 79.4 µM [inhibitor, partial curve, poor fit]"
3,O=C(COC(=O)Cn1[nH]c(=O)c2ccccc2c1=O)Nc1ncc(Cl)cc1Cl,"inconclusive: 15.8 µM [inhibitor, full curve]"
4,Cc1ccc(SCc2ccc(C(=O)Nc3cccnc3)cc2)cc1,"inconclusive: 22.4 µM [inhibitor, partial curve]"
5,CCC(C)n1c(NC(=O)c2ccccc2)c(C#N)c2nc3ccccc3nc21 (configuration not stated),active: 50.1 µM
6,CN(c1ccccc1)c1ccc(/C=C(/CCC(=O)O)c2nc3ccccc3s2)cc1[N+](=O)[O-],active: 20 µM
7,O=C(CN1CCC(Cc2ccccc2)CC1)N1CCc2ccccc2C1,inactive
8,COc1cc(N=C2C(=O)N3c4c(cccc42)C(C)=CC3(C)C)cc(OC)c1,"inconclusive: 50.1 µM [inhibitor, partial curve, poor fit]"
9,O=C(O)c1ccccc1NC(=O)C1CCN(S(=O)(=O)c2ccc3c(c2)OCCO3)CC1,inactive
10,O=C(ONC(=O)C1C2C=CC(C2)C1C(=O)NOC(=O)c1ccccc1)c1ccccc1 (configuration not stated),inactive
11,CC1CCN(c2ccc(C(=O)Nc3nnc(C4CC4)s3)cc2[N+](=O)[O-])CC1,inactive
12,CCOc1cc(C(=O)OCC(=O)NCc2ccco2)cc(OCC)c1OCC,"inconclusive: 15.8 µM [inhibitor, full curve, poor fit]"
13,COc1ccc(-c2nnc(Nc3ccc(S(=O)(=O)Nc4nccs4)cc3)c3ccccc23)cc1,active: 31.6 µM
14,O=C(CNS(=O)(=O)c1c(Cl)cccc1Cl)OCC(=O)c1ccc[nH]1,active: 44.7 µM
15,COc1ccc(NC(=O)Nc2cc(C)ccn2)cc1,"inconclusive: 89.1 µM [inhibitor, single point]"
16,CC(=O)Nc1ccc(NC2=C(Cl)C(=O)c3ccccc3C2=O)cc1,inactive
17,Cc1nnc(N2C(=O)c3cccc4c([N+](=O)[O-])ccc(c34)C2=O)s1,"inconclusive: 50.1 µM [inhibitor, partial curve, poor fit]"
18,Cc1ccc(C(=O)Nc2nnc(CC(=O)N/N=C/c3ccncc3)s2)cc1,"inconclusive: 50.1 µM [inhibitor, partial curve, poor fit]"
19,CCc1ccc(-n2c(=O)c3sc4ccccc4c3n(CC(=O)N3CCCC3)c2=O)cc1,inactive
20,O=C(O)CCc1ccc(-c2ccc(F)cc2)n1NC(=O)c1ccco1,"inconclusive: 44.7 µM [inhibitor, partial curve, poor fit]"
21,Cc1ccn(C(=O)c2cc3c(C)nn(-c4ccccc4)c3s2)n1,"inconclusive: 1.12 µM [inhibitor, full curve, poor fit]"
22,Cc1cccc(N2CCN(C(=O)C3CCC(=O)N(Cc4ccccc4F)C3)CC2)c1C (configuration not stated),"inconclusive: 89.1 µM [inhibitor, partial curve, poor fit]"
23,CC(=O)N1CCc2c(sc3c2c(=O)n(-c2ccc(C)cc2)c(=O)n3Cc2c(F)cccc2Cl)C1,inactive

row,SMILES,Potency
1,CCN(CC)CCCN(Cc1cc2cc3c(cc2[nH]c1=O)OCO3)C(=S)Nc1ccc(OC)cc1,"inconclusive: 39.8 µM [inhibitor, single point]"
2,Cc1ccc(NC(=O)Nc2nnc(-c3ccncc3)s2)cc1C,active: 89.1 µM
3,O=C(NCc1ccco1)/C(=C/c1ccco1)NC(=O)c1ccc(Br)o1,"inconclusive: 14.1 µM [inhibitor, full curve, poor fit]"
4,CN(C)/C=C1\SC(=S)N(c2ccc(Br)cc2)C1=O,"inconclusive: 14.1 µM [inhibitor, partial curve, poor fit]"
5,O=C(N/N=C/c1ccco1)C1CCCC1,"inconclusive: 31.6 µM [inhibitor, partial curve, poor fit]"
6,CCc1ccc(NC(=O)CCCc2nnc3n(CC(C)C)c(=O)c4sccc4n23)cc1,inactive
7,O=C(COC(=O)COc1ccccc1)Nc1cccnc1Cl,"inconclusive: 39.8 µM [inhibitor, partial curve, poor fit]"
8,Cn1c(=O)c(NCCc2ccccc2)c2c3c(cccc31)C(=O)c1ccccc1-2,"inconclusive: 17.8 µM [inhibitor, full curve]"
9,Cc1nn(CC(=O)Nc2ccccc2F)c(=O)c2c(C)n(-c3ccc(Cl)cc3)nc12,inactive
10,CC(C)(C)N(Cc1ccccc1)C(=O)COC(=O)C1CCCCC1,"inconclusive: 89.1 µM [inhibitor, partial curve, poor fit]"
11,Cc1ccc(Cl)cc1NC(=O)Cn1c(=O)n(Cc2ccc(C(=O)NCc3ccc4c(c3)OCO4)cc2)c(=O)c2ccccc21,"inconclusive: 89.1 µM [inhibitor, single point]"
12,O=C(O)c1cc(-c2ccc(/C=N/NC(=S)Nc3ccccc3)o2)ccc1Cl,active: 20 µM
13,COc1ccc(Br)cc1CNc1ccc(O)cc1,inactive
14,O=C(O)c1cnn(-c2nc(-c3ccc(Cl)c(Cl)c3)cs2)c1C(F)(F)F,"inconclusive: 89.1 µM [inhibitor, partial curve]"
15,COc1cccc(-c2[nH]nc3c2C(c2ccoc2)C(C#N)=C(N)O3)c1 (configuration not stated),"inconclusive: 89.1 µM [inhibitor, partial curve]"
16,CN(C)/C=C/C=C1C(=O)CCCC1=O,active: 10 µM
17,O=[N+]([O-])c1ccc(C(c2sc3nc(-c4ccco4)nn3c2O)N2CCN(c3cccc(Cl)c3)CC2)cc1 (configuration not stated),"inconclusive: 79.4 µM [inhibitor, partial curve, poor fit]"
18,C#CCn1c(=NC(=O)c2cccs2)sc2cccc(OC)c21,"inconclusive: 20 µM [inhibitor, full curve]"
19,CN(C)S(=O)(=O)c1cccc(NC(=O)COC(=O)/C=C/c2ccc(Br)o2)c1,"inconclusive: 70.8 µM [inhibitor, partial curve, poor fit]"
20,Cc1cccc2cc3c(NC(=O)C(C)(C)C)nn(CC(C)C)c3nc12,"inconclusive: 44.7 µM [inhibitor, partial curve, poor fit]"
21,Cc1ccc(CNC(=O)CSc2nnc3c(n2)[nH]c2ccc(F)cc23)cc1,"inconclusive: 35.5 µM [inhibitor, partial curve]"
